# According to PubChem BioAssay AID1347434 (National Center for Advancing Translational Sciences (NCATS), 2020):
# Out of some 1,200 compounds screened, about 30 (2%) were called active. About 23% were inconclusive and are not listed. Calls follow the shape of the dose curve; as a rule, active = well fitted inhibition curve with a large enough effect; inconclusive = small, poorly fitted or top-dose-only effect; inactive = flat fitted curve, though single readings scatter. This is one part of the list.
# Molecular target: Single-stranded DNA cytosine deaminase (Homo sapiens) (UniProt Q9GZX7)
# Test: Confirmatory qHTS assay for inhibitors of Activation Induced Cytidine Deaminase (AID): AID signals
# Conditions: recombinant AID, FRET deamination/UDG coupled fluorescence, 4 h; series mostly up to 115 µM; activity, negative = inhibition: at the top concentration
# How it was run: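 Read 1 (AID) was measured at 540 ex/590 em after a 30 min NaOH step. The reaction was AID (1 uM, 4/3x stock) with UDG, compound at final 7.32 nM - 114 uM for 10 min, then DJC20/DJC23 substrate for 4 hr at room temperature. A UDG read at 560/665 serves as counterscreen.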
# % is scaled to controls: 0 for no effect and ±100 for the full control effect.
# Sequence of UniProt Q9GZX7 (Q9GZX7 whole entry, looked up): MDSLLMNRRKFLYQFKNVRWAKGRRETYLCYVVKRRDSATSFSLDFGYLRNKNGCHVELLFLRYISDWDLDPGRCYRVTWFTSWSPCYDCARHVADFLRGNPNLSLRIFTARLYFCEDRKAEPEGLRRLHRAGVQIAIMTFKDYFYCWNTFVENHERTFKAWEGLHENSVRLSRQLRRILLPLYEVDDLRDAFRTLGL
row,Structure (SMILES),"activity, negative = inhibition"
1,CCCCOc1cccc(C(=O)Nc2cccc3ccc(C)nc23)c1,inactive: -2.14%
2,COc1cc(OC)cc(C(=O)Nc2ccc3nc(N4CCC(C)CC4)cc(C)c3c2)c1,inactive: -6.18%
3,Cc1ccc(C)c(N2CCN(C(=O)c3ccc4c(Cl)c5c(nc4c3)CCCC5)CC2)c1,inactive: -8.67%
4,COc1ccc(C(=O)N(Cc2ccco2)Cc2ccccc2F)cc1Cl,inactive: -20.4%
5,CC1=C(C(=O)NCc2cccc(Cl)c2)C2(CCCCCC2)OC1=O,inactive: 1.97%
6,Cc1ccc2c(c1)-c1ncc(C(=O)c3cc(Br)ccc3O)cc1CO2,inactive: 0.761%
7,Cc1cc(C)cc(Nc2cc(C)nc3nc(-c4ccco4)nn23)c1,inactive: -6.46%
8,Cc1cccc(OC(C)C(=O)N2CCC(c3nc4ccccc4o3)CC2)c1C (configuration not stated),inactive: -10.2%
9,COc1ccc(C(CNC(=O)COc2cc(C)c(Cl)c(C)c2)N2CCCCC2)cc1 (configuration not stated),inactive: 4.72%
10,O=C(NCCn1cc(SCc2ccc(C(F)(F)F)cc2)c2ccccc21)c1cccs1,inactive: 7.38%
11,Cc1cc2ccccc2n1-c1ccc(C(=O)N2CCCCC2)s1,inactive: -4.34%
12,Cc1ccccc1CSc1nc2nc(C)c(Cc3ccccc3)c(C)n2n1,inactive: -17.8%
13,CCCCN(CCCC)CC(O)Cn1cc(/C=C/C(=O)c2ccccc2)c2ccccc21 (configuration not stated),inactive: -9.29%
14,CCCCOc1ccc(-c2nn(-c3ccccc3)cc2C2NC(=O)NC(C)=C2C(=O)OCC)cc1 (configuration not stated),inactive: -23.8%
15,Cc1cccc(N2C(=O)N(CC(=O)C(C)(C)C)c3ccccc3S2(=O)=O)c1C,inactive: -1.03%
16,CCOc1ccc(C(=O)/C=C/c2cn(CC(O)CN3CCCCCC3)c3ccccc23)cc1 (configuration not stated),inactive: -5.22%
17,Cc1cc2nnc(SCc3ccc(F)cc3)n2c2ccccc12,inactive: -13.7%
18,CCOc1ccc(C(=O)c2cn(CC(=O)Nc3ccc(OC)cc3)c3cc4c(cc3c2=O)OCCO4)cc1,inactive: -22.8%
19,COc1cccc(CNC(=O)Cn2c(=O)ccc3cc(S(=O)(=O)N4CCC(C)CC4)ccc32)c1,inactive: -19.1%
20,CCOc1ccc(CCNc2ncnc3onc(-c4ccc(Cl)cc4)c23)cc1OCC,inactive: -10%
21,O=C(CCS(=O)(=O)c1nc(-c2cccs2)cc(C(F)(F)F)n1)Nc1ccc(OC(F)(F)F)cc1,inactive: 3.71%
22,CCOC(=O)C1CCN(c2nc3c(S(=O)(=O)c4ccccc4)nnn3c3ccsc23)CC1,inactive: -6.88%
23,Cc1ccc2onc(CC(=O)N3CCN(c4cc(Cl)ccc4C)CC3)c2c1,inactive: -15.5%

row,Structure (SMILES),"activity, negative = inhibition"
1,CCc1ccc(-n2c(=O)c3c4c(sc3n(CC(=O)N3CCCCC3CC)c2=O)CCC4)cc1 (configuration not stated),inactive: -15.2%
2,Cc1nc2nc(SCC(=O)NC3CCCCC3)nn2c(C)c1Cc1ccccc1Cl,inactive: -9.71%
3,CCc1ccccc1-n1c(C)nc2cc(C(=O)NCCc3ccc(Cl)cc3)ccc21,inactive: -11.6%
4,CN(C)c1ccc(CN(Cc2ccco2)C(=O)c2ccc(C(C)(C)C)cc2)cc1,inactive: -6.01%
5,CC(C)(C)OC(=O)N1CCC(c2c(C(=O)NCc3cccc(Cl)c3)cnn2-c2ccc(F)cc2)CC1,inactive: -19.3%
6,COc1cccc(Cn2cc(C(=O)c3ccccc3)c(=O)c3cc4c(cc32)OCO4)c1,inactive: -28.1%
7,COc1ccc(OC)c(NC(=O)Cn2c(=O)cc(-c3ccccc3)c3c(C)nn(C)c32)c1,inactive: -20%
8,Cc1cccc(N2CCN(C(=O)CS(=O)(=O)Cc3nc(-c4ccccc4C)oc3C)CC2C)c1 (configuration not stated),inactive: 2.05%
9,Cc1cc(C)cc(OCC(=O)NCC(c2ccc(Cl)cc2)N2CCCCC2)c1 (configuration not stated),inactive: -3.85%
10,CCc1ccc(CN(Cc2ccco2)C(=O)c2ccccc2Cl)cc1,inactive: -14.8%
11,Cc1cccc(Cn2c(SCc3ccc(C(=O)N4CCCCCC4)cc3)nc3ccncc32)c1,inactive: -11%
12,O=C(CSc1nnc(-c2ccccc2Cl)o1)N1CCCc2ccccc21,inactive: -10.1%
13,CCOc1ccc2nc(Cl)c(C3CC(c4ccc(C)cc4)=NN3C(=O)CCC(=O)O)cc2c1 (configuration not stated),inactive: 3.08%
14,Cc1ccc(Cl)cc1N1CCN(C(=O)c2ccc3c(Cl)c4c(nc3c2)CCCC4)CC1,inactive: 15.5%
15,COc1cccc(-c2nc(CS(=O)(=O)CC(=O)N3CCN(c4ccccc4)CC3)c(C)o2)c1,inactive: 0.697%
16,COc1ccc(-n2nc3c(N4CCC(C(=O)N5CCC(C)CC5)CC4)nnc(C)c3c2C)cc1,inactive: 2.89%
17,CCc1ccc(OCC(=O)N(Cc2ccc(C(C)C)cc2)C2CCS(=O)(=O)C2)cc1 (configuration not stated),inactive: -7.21%
18,CCc1nn(CCCC(=O)NCc2cc(Br)ccc2OC)c(=O)c2cc3occc3n12,inactive: -12.5%
19,CN(C(=O)c1ccc2c(c1)N(Cc1ccc(F)cc1)C(=O)c1ccccc1S2(=O)=O)C1CCCCC1,inactive: -5.42%
20,Cc1cccc(N2CCN(C(=O)c3cccn3-c3nnc(N4CCCCC4)s3)CC2)c1C,inactive: -5.86%
21,Cc1ccc(Cl)cc1N1CCN(C(=O)c2nn(C)c3c2CS(=O)(=O)c2ccccc2-3)CC1,inactive: -15.1%
22,CCOc1ccc(S(=O)(=O)c2c(C(=O)c3ccc(C)c(C)c3)cnc3ccccc23)cc1,inactive: -4.73%
23,CCCCCSc1nc2sc3c(c2c(=O)n1-c1ccccc1)CCN(C(C)=O)C3,inactive: -26.7%

row,Structure (SMILES),"activity, negative = inhibition"
1,Cc1ccc(Cn2c(SCc3ccc(C(=O)N4CCCCCC4)cc3)nc3ccncc32)cc1,inactive: -6.5%
2,COc1ccc(S(=O)(=O)N(CC(=O)Nc2cccc(C(F)(F)F)c2)c2ccc(C)cc2)cc1,inactive: -5.83%
3,CCOC(=O)C1=C(CN2CCN(c3ccccc3F)CC2)NC(=O)NC1c1ccc(Cl)cc1 (configuration not stated),inactive: -9.34%
4,O=C(Nc1cccc(Cl)c1)c1c(NC(=O)C(F)(F)F)sc2c1CCCC2,inactive: -14.6%
5,CCc1ccc2oc(C(=O)NCC(c3ccc(Cl)cc3)N3CCOCC3)c(C)c2c1 (configuration not stated),inactive: -9.17%
6,Cc1oc(-c2ccccc2Cl)nc1CS(=O)CC(=O)N1CCN(c2cccc(C(F)(F)F)c2)CC1 (configuration not stated),inactive: -3.5%
7,Cc1cccc(N2CCN(C(=O)c3sc4nc5n(c(=O)c4c3C)CCC5)CC2C)c1 (configuration not stated),inactive: -8.89%
8,CCCc1cnc2c(c1SCc1cccc(C)c1)c(=O)n(C)c(=O)n2C,inactive: -13.2%
9,Cc1ccc(-n2ncc(C(=O)NCc3ccc4c(c3)OCO4)c2C2CCN(C(=O)OC(C)(C)C)CC2)c(C)c1,inactive: -16.4%
10,CN1CCN(C(=O)c2ccc3c(c2)N(Cc2ccc(C(F)(F)F)cc2)C(=O)c2ccccc2S3)CC1,inactive: -7.94%
11,Cc1cc(C)cc(N2C(=O)CSC23C(=O)N(Cc2c(F)cccc2Cl)c2ccccc23)c1 (configuration not stated),inactive: -10.2%
12,Cc1ccc(C)c(CN2C(=O)c3ccccc3S(=O)c3ccc(C(=O)N4CCCCC4)cc32)c1 (configuration not stated),inactive: -1.88%
13,CCOC(=O)c1c(C)n(-c2ccccc2)c2ccc(OC(=O)c3ccccc3NC(=O)C(C)(C)C)cc12,inactive: 11.3%
14,Cc1ccc(N(Cc2cccs2)C(=O)COc2cccc(C)c2)cc1,inactive: -20.2%
15,CCn1cc2nc(SCc3ccc(F)cc3)n(CCc3ccccc3)c(=O)c2n1,inactive: -8.36%
16,COCCCNC(=O)c1oc2c(c1C)-c1nn(Cc3ccccc3Cl)cc1CC2,inactive: 16%
17,CCC1=Nc2cc(C(=O)NCCCOC)ccc2Sc2ccc(Br)cc21,inactive: -5.81%
18,CCCc1nc2ccccc2n2c(-c3ccccc3)c3c(=O)n(C)c(=O)n(C)c3c12,inactive: -19.8%
19,Cc1ccc2c(c1)C(c1ccc(F)cc1)N(C(=O)c1ccc(OC(C)C)cc1)CC(=O)N2 (configuration not stated),inactive: -0.686%
20,CCCN(C(=O)CCc1nc(-c2ccc(OC)cc2)no1)c1ccccc1F,inactive: -13.3%
21,COc1cccc(-n2c(-c3cccc(F)c3)nc3c(cnn3-c3ccc(C)cc3)c2=O)c1,inactive: -15.5%
22,CC(C)(C)OC(=O)N1CCC(c2c(C(=O)NCCc3ccccc3)cnn2-c2ccc(F)cc2)CC1,inactive: -2.62%
23,O=C(NCCc1nc2ccccc2n1Cc1ccc(Cl)cc1Cl)c1ccco1,inactive: -6.08%

row,Structure (SMILES),"activity, negative = inhibition"
1,CCCCC(CC)Cn1c(Oc2ccccc2)nc2c1c(=O)n(C)c(=O)n2C (configuration not stated),inactive: -12%
2,COc1cc(NC(=O)CSc2nc3nc(C)c(Cc4ccccc4)c(C)n3n2)cc(OC)c1OC,inactive: -14.7%
3,Cc1ccc(Cl)cc1NC(=O)Nc1cn(CC(C)C)c(=O)c2ccccc12,inactive: 46.2%
4,Cc1ccccc1C(=O)Nc1ccc(C(=O)OCc2cc(=O)n3c4c(sc3n2)CCCC4)cc1,inactive: -14.7%
5,Cc1ccc(Cl)cc1N(C)C(=O)c1cc2ccc3cccnc3c2[nH]1,inactive: -3.21%
6,Cc1ccc(C)c(N2CCN(C(=O)c3cc4c(=O)n(Cc5cccs5)ccc4nc3C)CC2)c1,inactive: -7.29%
7,Cc1ccc(CSC2=Nc3ccccc3C3=NC(CCC(=O)NCc4cccs4)C(=O)N23)cc1 (configuration not stated),inactive: -6.92%
8,CCn1cc(S(=O)(=O)c2ccccc2)c(=O)c2cc(F)c(N3CCCCCC3)cc21,inactive: -28.4%
9,Cc1ccc2c(c1)C(c1ccccc1)N(C(=O)COc1ccc(Cl)cc1Cl)CC(=O)N2 (configuration not stated),inactive: -12.4%
10,CN(Cc1ccco1)C(=O)c1ccc2c(c1)N(Cc1ccccc1F)C(=O)c1ccccc1S2,inactive: -11.4%
11,CCC1CN(C(=O)N2CCC(C(=O)N3CCN(c4cccc(C)c4C)CC3)CC2)c2ccccc2O1 (configuration not stated),inactive: -12.2%
12,COc1ccc(N2CCN(C(=O)c3cc4c(-c5ccccc5F)nn(C)c4s3)CC2)cc1,inactive: 1.58%
13,CCOc1ccc(CCNC(=O)c2ccc3c(c2)c(C)c(C)n3C)cc1,inactive: 10.6%
14,Cc1[nH]n2c(=O)cc(-c3ccccc3Cl)nc2c1-c1ccccc1,inactive: -8.05%
15,CC1CCCCN1C(=O)c1ccc2c(c1)N(Cc1ccc(Cl)cc1)C(=O)c1ccccc1S2=O (configuration not stated),inactive: -21%
16,COc1cc2c(=O)c(C(=O)c3ccc(C)c(C)c3)cn(Cc3ccc(F)cc3)c2cc1OC,inactive: -26%
17,CCc1nn2c(-c3ccccc3OC)ccnc2c1-c1ccccc1,inactive: -12.1%
18,Cc1ccc(C(=O)c2cn(Cc3ccccc3)c3nc(C)ccc3c2=O)cc1,inactive: -21.7%
19,CCc1cccc(-n2c(C)nc3c(cnn3-c3ccc(Cl)cc3)c2=O)c1,inactive: -9.58%
20,Cc1ccc(-c2cc3ncc(C(=O)c4cc([N+](=O)[O-])ccc4O)cn3n2)cc1,inactive: -25%
21,CCCN(CCC)C(=O)Cn1c(=O)n(Cc2ccc(C(=O)NCCc3ccc(OC)c(OC)c3)cc2)c(=O)c2ccccc21,inactive: -3.63%
22,Cc1cc(C)c(/C=C/c2onc(C)c2S(=O)(=O)N2CCC(C(=O)N3CCN(c4ccccc4)CC3)CC2)c(C)c1,inactive: -2.02%
23,O=C(CCCCn1c(=O)[nH]c2ccsc2c1=O)N1CCN(c2cccc(Cl)c2)CC1,inactive: -21.5%
